Test results from PubChem BioAssay AID360 (National Center for Advancing Translational Sciences (NCATS), 2006).
Among all 48,000 compounds or so, about 550 (1.1%) were called active. Inconclusive results (about 4%) are left out. No stated cut-off is given here; in the data, active means potency below about 15 µM; inconclusive means mostly about 16 µM to 33 µM; inactive means weaker than that. Some of the results follow.

The compounds below were run against Lysosomal acid glucosylceramidase (Homo sapiens) (UniProt P04062) (assay: Glucocerebrosidase). Conditions: purified enzyme, resorufin glucoside fluorescence (screen aimed at inhibitors), 20 min.
Procedure, shortened: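 Compounds titrated against 0.2 nM normal enzyme, 30 uM resorufin beta-D-glucopyranoside substrate, citrate/phosphate buffer with taurocholate and tween-20, pH 5.9. Reaction ran 20 min at room temperature; fluorescence (Ex 548/Em 600) gave AC50.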
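Further: the screen sought inhibitors.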
Potency means the concentration at half of the fitted maximal effect.

UniProt P04062, sequence (P04062 whole entry, looked up): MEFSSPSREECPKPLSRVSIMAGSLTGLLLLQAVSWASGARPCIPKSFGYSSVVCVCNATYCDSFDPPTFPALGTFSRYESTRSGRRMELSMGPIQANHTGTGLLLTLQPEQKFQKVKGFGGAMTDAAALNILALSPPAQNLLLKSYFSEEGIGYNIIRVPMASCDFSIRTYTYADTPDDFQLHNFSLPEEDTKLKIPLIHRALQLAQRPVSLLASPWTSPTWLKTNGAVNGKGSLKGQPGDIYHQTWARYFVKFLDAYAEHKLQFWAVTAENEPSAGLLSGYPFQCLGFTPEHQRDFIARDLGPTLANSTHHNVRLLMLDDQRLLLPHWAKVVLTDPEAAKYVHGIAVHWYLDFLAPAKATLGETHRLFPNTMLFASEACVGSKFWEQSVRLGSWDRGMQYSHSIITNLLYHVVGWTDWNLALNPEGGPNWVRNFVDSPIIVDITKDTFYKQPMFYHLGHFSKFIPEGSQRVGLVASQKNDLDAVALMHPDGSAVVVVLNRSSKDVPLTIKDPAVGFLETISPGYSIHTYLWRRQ

Potency, inactive:
O=C(COc1ccc(F)cc1Br)NCc1ccccn1 > 76.9 µM
Cn1c(NC(=O)c2cccc(Cn3cc(Cl)cn3)c2)nc2ccccc21 > 76.9 µM
Cc1cc(NC(=O)CSc2nc(-c3ccccc3)c(C#N)c(=O)[nH]2)no1 > 76.9 µM
CCOc1ccc(S(=O)(=O)Nc2cc(OC)ccc2OC)cc1 > 76.9 µM
CN1C(=O)CC(N2CCN(CCN=CC3=C(O)CC(C)(C)CC3=O)CC2)C1=O (stereo not drawn) > 76.9 µM
CCOC(=O)c1ccccc1NC(=O)COC > 76.9 µM
Cn1c(=O)oc2cc(S(=O)(=O)NCCC(=O)NC3CCCC3)ccc21 > 76.9 µM
O=C(Cn1cnc2c(nnn2Cc2ccc(F)cc2)c1=O)NCc1ccc2c(c1)OCO2 > 76.9 µM
Cc1nc2c(C(=O)N3CCCC3)c[nH]n2c(=O)c1Cc1ccc(F)cc1Cl > 76.9 µM
CCCCn1cnc2cc(NCc3ccncc3)ccc21 > 76.9 µM
COCC(C)NCc1ccc(C)cc1C (stereo not drawn) > 76.9 µM
Nc1ccccc1C(=O)Nc1cccc(C(=O)O)c1 > 76.9 µM
Cc1ccc(Cn2c(SCC(N)=O)nc3c2c(=O)n(C)c(=O)n3C)cc1 > 76.9 µM
NC(=O)CSc1nnc(COc2ccccc2)n1CCc1ccccc1 > 76.9 µM
Clc1cccc(-c2nn3c(Cn4cnc5ccccc54)nnc3s2)c1 > 76.9 µM
Cc1csc(NC(=O)C2CCCN2C(=O)Oc2ccccc2)n1 (stereo not drawn) > 76.9 µM
Cc1nnc2sc(-c3ccc(-c4ccc(Cl)c(C(F)(F)F)c4)o3)nn12 > 76.9 µM
Cn1c(SCC(=O)N2CCc3ccccc32)nc2cccnc21 > 76.9 µM
Cc1nnc(SCC(=O)c2ccc(S(=O)(=O)N3CCOCC3)cc2)n1-c1ccccc1 > 76.9 µM
COc1ccccc1NC(=O)C1CC(=O)OC1c1ccccc1 (stereo not drawn) > 76.9 µM
O=S(=O)(c1ccc(S(=O)(=O)N2CCN(C3CCCCC3)CC2)cc1)N1CCCCCC1 > 76.9 µM
CCCC(=O)Nc1ccc(C(=O)N2CCCC2)cc1 > 76.9 µM
Cc1cc(C)n2nc(C(=O)OCCOc3cccc(Br)c3)nc2n1 > 76.9 µM
CC(=O)c1c(C)n(-c2ccc(N(C)C)cc2)c2ccc(OCC(N)=O)cc12 > 76.9 µM
COc1ccc(CC(=O)NC2CCN(CC(=O)N3CCCc4ccccc43)CC2)cc1OC > 76.9 µM
COc1ccccc1NC(=O)Cn1nnc(-c2ccccc2NC(=O)c2ccco2)n1 > 76.9 µM
O=C(NC1CC1)C1CCN(c2ccc(S(=O)(=O)N3CCOCC3)cc2Cl)CC1 > 76.9 µM
CCCCn1c(SCC(=O)Nc2cc(C)on2)nc2c1c(=O)n(C)c(=O)n2C > 76.9 µM
CN(C)c1ccc(CNC2CC(C)(C)NC(C)(C)C2)cc1 > 76.9 µM
CCOC(=O)c1c(N)sc2c1CCCC2 > 76.9 µM
COc1ccccc1C(=O)N(Cc1cccs1)C1CCS(=O)(=O)C1 (stereo not drawn) > 76.9 µM
COc1ccc(OC)c(S(=O)(=O)NCc2csc(-c3ccccc3)n2)c1 > 76.9 µM
CCOC(=O)c1ccc(S(=O)(=O)N2CCN(CC3CC=CCC3)CC2)cc1 (stereo not drawn) > 15.4 µM
Cc1ccc2c(c1)N(Cc1ccc3c(c1)OCO3)C(=O)C(C)O2 (stereo not drawn) > 76.9 µM
CC(=O)NCCC(Cc1ccccc1)c1ccco1 (stereo not drawn) > 76.9 µM
CCCCC(=O)N(c1ccc(OCC)cc1)C1C=CS(=O)(=O)C1 (stereo not drawn) > 76.9 µM
O=C(Nc1ccon1)C1CCN(S(=O)(=O)c2cccs2)CC1 > 76.9 µM
CC1(C)CC(=O)c2cc(C(=O)NCc3ccco3)c(=O)n(-c3ccccc3)c2C1 > 76.9 µM
CCCOc1ccc(C(=O)NCc2cccnc2)cc1 > 76.9 µM
COc1cccc(OC)c1NC(=O)Cc1nn(C)c(=O)c2ccccc12 > 76.9 µM
C=CCOc1ccccc1/C=c1\sc2nc(-c3oc4ccccc4c3C)nn2c1=O > 76.9 µM
CC(=O)Cc1nsc(NC(=O)c2ccc(COc3ccc(C)cc3)o2)n1
O=S1(=O)C=C(Sc2nnc(-c3ccccc3)o2)c2ccccc21 > 76.9 µM
COC(=O)CSc1nnc(-c2ccc(S(=O)(=O)N3CCC(C)CC3)cc2)o1 > 76.9 µM
Cc1ccc(SC(C)C(=O)Nc2ncn[nH]2)cc1 (stereo not drawn) > 76.9 µM
COc1cc([C@H]2[C@@H]3CCCC[C@]3(O)CCN2Cc2ccccc2F)ccc1O > 76.9 µM
Cc1cc(NCc2ccccc2Cl)n2nnnc2n1 > 76.9 µM
O=C(NC1CCCC1)C1CCC(=O)N1C1CCCC1 (stereo not drawn) > 76.9 µM
Cc1cc(C(=O)COC(=O)CN(C)S(=O)(=O)c2ccc(Cl)cc2)c(C)n1CC1CCCO1 (stereo not drawn) > 76.9 µM
CC(=O)Nc1ccc(S(=O)(=O)N2CCN=C2C)cc1 > 76.9 µM
CSc1ncc(C(=O)O)n1-c1ccc(F)cc1 > 76.9 µM
CCOC(=O)CSc1nnc(CNc2ccccc2Cl)n1-c1ccccc1 > 76.9 µM
O=C(Cn1nc(-c2ccc(Cl)cc2)ccc1=O)N1CCN(c2ccccc2)CC1 > 76.9 µM
COC(=O)c1ccc(NC2=CC(=O)CC(C)(C)C2)cc1 > 76.9 µM
CCCCn1c(SCC(=O)Nc2ccc(OC)cc2)nc2ccc(N3CCOCC3)cc2c1=O > 76.9 µM
COc1ccc2[nH]cc(C(O)CN3CCN(c4ccccc4)CC3)c2c1 (stereo not drawn) > 76.9 µM
CCN(CCO)Cc1cn[nH]c1-c1ccc(C)c(C)c1 > 76.9 µM
CCOC(=O)Nc1sc(C(=O)N(CC)CC)c(C)c1C(=O)OCC > 76.9 µM
O=C(CN1CCC(O)CC1)N1c2ccccc2C=Cc2ccccc21 > 76.9 µM
CCOC(=O)N1CCC(n2c(=S)[nH]c3cc(OC)c(OC)cc3c2=O)CC1 > 76.9 µM
O=C(c1ccco1)N1CCN(C(=O)c2cc(-c3ccncc3)nc3ccc(Br)cc23)CC1 > 76.9 µM
O=C(CSc1ccc(Cl)cc1)N1CCOCC1 > 76.9 µM
O=S(=O)(c1ccc2c(c1)oc1ccccc12)N1CCOCC1 > 76.9 µM
Cc1nn2cc(-c3ccc(-c4ccccc4)cc3)nc2s1 > 76.9 µM
Cc1n[nH]c(=O)nc1N1CCN(c2ccccc2)CC1 > 76.9 µM
Cc1ccc(-c2nnn(CC(=O)N(CC(=O)NC3CCCCC3)c3cnc4ccccc4c3)n2)o1
O=S1(=O)N=C2CCCCCN2C(c2ccncc2)N1 (stereo not drawn) > 76.9 µM
c1ccc2c3c(cc(N4CCOCC4)c2c1)OC1(N2CCOCC2)CCCCC1O3 (stereo not drawn) > 76.9 µM
O=C(Cn1c(C(F)(F)F)nc2ccccc21)NCCN1CCCC1
Cc1cccc(-n2c(O)c(C=NCCCN3CCOCC3)c3ccccc3c2=O)c1 > 76.9 µM
N#CC1=C2Sc3ccccc3N2CCCC1=O > 76.9 µM
COC(=O)COc1ccc(S(=O)(=O)Nc2ccc3c(c2)OCO3)cc1 > 76.9 µM
O=C(NCCN1CCN(c2ccccc2)CC1)C1CCN(S(=O)(=O)c2cccc3nonc23)CC1 > 76.9 µM
CCOC(=O)C1CCCN(C(=O)Cn2cccc2C(=O)c2ccccc2)C1 (stereo not drawn) > 76.9 µM
O=C(O)c1ccn(Cn2cnc3ccccc32)n1 > 76.9 µM
O=c1c[n+]([O-])c2ccccc2n1OCc1ccccn1 > 76.9 µM
Nc1ccc(-n2ccnc2)cc1 > 76.9 µM
O=C(N1CCOCC1)N1CCN(c2ccccn2)CC1 > 76.9 µM
COCCCNC(=O)CSC1=Nc2ccccc2C2=NC(CC(=O)NCc3ccccc3)C(=O)N12 (stereo not drawn) > 76.9 µM
CNc1nc(-c2ccc(Cl)cc2)cs1 > 76.9 µM
O=C(Cn1cnc2c(nnn2Cc2ccccc2F)c1=O)NCc1ccco1 > 76.9 µM
O=C(NCC(=O)N1CCCC1C(=O)O)OC1CCCCC1 (stereo not drawn)
O=C1NCCCc2nonc21 > 76.9 µM
S=c1[nH]nc(-c2ccncc2)n1Cc1ccco1 > 76.9 µM
O=C(C1CC1c1ccccc1)N1CCN(c2cccc(Cl)c2)CC1 (stereo not drawn) > 76.9 µM
O=C(OC1CCCCC1=O)c1cc(=O)c2ccccc2o1 (stereo not drawn) > 76.9 µM
COc1cc(C(=O)NCC2CCCO2)ccc1OCc1c(C)noc1C (stereo not drawn) > 76.9 µM
Cc1cc(C)cc(CC2CC(=O)N(c3nc(C)cc(C)n3)C2=O)c1 (stereo not drawn) > 76.9 µM
COc1ccc2c(c1OC)C(=O)N(c1cccc(C)c1)C2 > 76.9 µM
COc1ccccc1OCc1nc(Cc2ccc(Cl)cc2)no1 > 76.9 µM
COCCNC(=O)c1csc2c1CCCC2 > 76.9 µM
CN1CCN(c2nc3c(c(=O)[nH]c(=O)n3C)n2Cc2cccc3ccccc23)CC1 > 76.9 µM
CCN(CC)S(=O)(=O)c1ccc2c(c1)c(=O)c(C(=O)NCCCN(C)c1ccccc1)cn2C > 76.9 µM
